Laboratory results from ChEMBL document CHEMBL4888484, “Replenishing the malaria drug discovery pipeline: Screening and hit evaluation of the MMV Hit Generation Library 1 (HGL1) against asexual blood stage Plasmodium falciparum ,using a nano luciferase reporter read-out” (2022).
About 540 (0.36%) of roughly 150,000 compounds showed an effect of 50% or more. The list shows a part of the results.

These molecules were tested on Plasmodium falciparum (assay: Primary screen in NF54 nanoGlo assay, in single point, at 2uM, 72h; a lower Z score goes with more inhibition). Conditions: timepoint 72 hour.
Type: functional, Erythrocyte
In the case of `CC(C)c1csc(C(=O)N2CCN(C)[C@@H](CO)C2)n1`, the “% Inhibition” value was 8% and the Z score was -1.44.
With `O=C(CCCN1C(=O)c2ccccc2C1=O)N1CCc2ccccc2C1` the “% Inhibition” value was -4% and the Z score was 0.55.
`Cc1ccc(CNC(=O)c2c(C)c3c(=O)n(CC(=O)Nc4ccccc4)ncn3c2C)cc1` was tested, and the “% Inhibition” value was -8% and the Z score was 1.32.
`C[C@H](O)C1CCN(C(=O)Nc2ccc3sncc3c2)CC1` was tested, and the “% Inhibition” value was -5% and the Z score was 0.52.
`CCc1ccc(NC(=O)N2CCC3OCCN(C)C3C2)cc1CC` (stereo not drawn) was tested, and the “% Inhibition” value was 9% and the Z score was -1.11.
`CC[C@H]1c2cccn2CCN1C(=O)c1cc(C)nc(C)n1` was tested, and the “% Inhibition” value was 0% and the Z score was -0.02.
For `Cc1nc(N2CCCC2)nc(N[C@H]2COC[C@@H]2O)c1C`, the “% Inhibition” value was -9% and the Z score was 1.81.
`CCc1onc(C)c1CNC(=O)Nc1nsc2ccccc12` was tested, and the “% Inhibition” value was -21% and the Z score was 2.31.
In the case of `CC1=NS(=O)(=O)NC(C)=C1CCC(=O)N1CCc2ccccc2C1`, the “% Inhibition” value was -5% and the Z score was 0.84.
For `Cc1ccc(F)c(NC(=O)[C@H]2OCC[C@H]2C)c1Br`, the “% Inhibition” value was -11% and the Z score was 1.1.
In the case of `CCOCC(NC(=O)C1CS(=O)(=O)CC1C(F)(F)F)C(C)C` (stereo not drawn), the “% Inhibition” value was -4% and the Z score was 0.66.
In the case of `COC(=O)C1(CNC(=O)N2CC3C(C2)C3(C)C)CCOCC1` (stereo not drawn), the “% Inhibition” value was 12% and the Z score was -1.37.
In the case of `CCc1ccc(C(=O)NCC[C@H]2COCCC2(OC)OC)c(O)c1`, the “% Inhibition” value was -12% and the Z score was 1.51.
`C[C@]1(CO)CCCN1C(=O)C1Cc2ccccc2C1` was tested, and the “% Inhibition” value was -7% and the Z score was 0.76.
`CCCCN1C(=O)c2ccccc2N2C(=O)CC[C@@]12C(=O)Nc1nccs1` was tested, and the “% Inhibition” value was 25% and the Z score was -2.95.
With `Cc1ncc(-c2noc(C3CC3C3CC3)n2)c(N)n1` (stereo not drawn) the “% Inhibition” value was 19% and the Z score was -3.15.
`CC(C)=C1C2CCC1C1C(=O)N(c3nc(-c4ccccc4)c(C)s3)C(=O)C21` (stereo not drawn) was tested, and the “% Inhibition” value was -2% and the Z score was 0.27.
For `CN1CC(=O)N(CC(=O)N2CCc3c(Cl)cccc3C2)C1=O`, the “% Inhibition” value was -10% and the Z score was 1.01.
With `CNC(=O)c1cn(-c2ccccc2)nc1-c1cccc2ccccc12` the “% Inhibition” value was -9% and the Z score was 1.18.
With `CC(=O)c1cccc(-c2cc(NCc3cccnc3)nc3[nH]ccc23)c1` the “% Inhibition” value was -1% and the Z score was 0.13.
For `O=C1C[C@@H](c2ccc(Br)cc2)NC(=O)N1`, the “% Inhibition” value was -10% and the Z score was 1.38.
For `Cc1cc(C(=O)N[C@H]2COCC[C@@H]2OCc2ccccn2)nc(C)n1`, the “% Inhibition” value was -15% and the Z score was 1.86.
For `C=CCn1c(=O)c2sc(N3CCCCC3)nc2n(CC(=O)NCc2ccc(C)cc2)c1=O`, the “% Inhibition” value was -14% and the Z score was 1.26.
With `Cc1nc(C2CCOCC2)n([C@H]2CCN(S(=O)(=O)c3cc(Cl)ccc3Cl)C2)n1` the “% Inhibition” value was -4% and the Z score was 0.48.
With `O=C(c1cn(Cc2ccc(F)cc2)nn1)N1CCCN(Cc2ccccc2F)CC1` the “% Inhibition” value was -3% and the Z score was 0.43.
In the case of `CCC(C)(NC(=O)C(C)c1ccc2c(c1)OCCO2)C(F)(F)F` (stereo not drawn), the “% Inhibition” value was -5% and the Z score was 0.74.
With `Cc1ccc(NC[C@H]2CCN(Cc3nnnn3C3CC3)C2)nc1` the “% Inhibition” value was -4% and the Z score was 0.44.
For `CCC(CC)(CC)CNC[C@H]1CCCS1(=O)=O`, the “% Inhibition” value was 6% and the Z score was -0.64.
`Cc1c(C(=O)N2CCC[C@H](O)CC2)ccn1C` was tested, and the “% Inhibition” value was -15% and the Z score was 2.9.
In the case of `Cc1cc(C(=O)NC2CCN(C(=O)C3(c4cccc(F)c4)CCC3)CC2)no1`, the “% Inhibition” value was -9% and the Z score was 1.59.
For `COc1ccccc1N1CCN(C(=O)Cn2cnc3c(cnn3-c3cc(Cl)ccc3C)c2=O)CC1`, the “% Inhibition” value was -1% and the Z score was 0.22.
`CC(C)c1nc(CCn2cnnn2)n(-c2cccc3cccnc23)n1` was tested, and the “% Inhibition” value was -4% and the Z score was 0.54.
For `O=C(CNS(=O)(=O)c1ccccc1)OC(c1ccccc1)c1ccccc1`, the “% Inhibition” value was 4% and the Z score was -0.63.
For `Cc1cccc2nc(CCNc3nccn(C)c3=O)cn12`, the “% Inhibition” value was -11% and the Z score was 0.9.
With `COc1ccc(CCNc2nc3c(c(C(F)(F)F)n2)CCCCC3)cc1OC` the “% Inhibition” value was 1% and the Z score was -0.08.
In the case of `c1ccc(-c2ncn(Cc3ccc4c(c3)OCO4)c2C2CCOCC2)cc1`, the “% Inhibition” value was 0% and the Z score was 0.
`CC1CN(S(=O)(=O)Cl)C(C)CO1` (stereo not drawn) was tested, and the “% Inhibition” value was -10% and the Z score was 1.49.
`CC(Nc1cnccn1)C(O)Cc1ccccc1` (stereo not drawn) was tested, and the “% Inhibition” value was -8% and the Z score was 1.07.
With `CCCN(CCC)S(=O)(=O)c1ccc2c(c1)N(Cc1noc(C)n1)C(=O)CO2` the “% Inhibition” value was 4% and the Z score was -0.48.
With `Cc1cccc(NS(=O)(=O)c2ccc3c(c2)CC(C)(C)OC3)c1` the “% Inhibition” value was -19% and the Z score was 1.71.
In the case of `CC[C@@H](CO)NC(=O)c1cnc(Cc2c(Cl)cccc2Cl)nc1O`, the “% Inhibition” value was -16% and the Z score was 1.6.
`CCc1nnc2n1CCN(C(=O)C1CC1c1ccccc1F)C2` (stereo not drawn) was tested, and the “% Inhibition” value was -7% and the Z score was 0.56.
For `Cn1ncc(Cl)c1C(=O)N1C[C@@H]2CC[C@H]1CN(C(=O)C1CCC1)C2`, the “% Inhibition” value was -9% and the Z score was 1.71.
In the case of `CCN1CCC(NC(=O)c2ccon2)C1c1cc(F)c(F)c(F)c1` (stereo not drawn), the “% Inhibition” value was -8% and the Z score was 1.05.
In the case of `O=C(NCc1ccccc1)c1ccccc1OC1CN(C2CCC2)C1`, the “% Inhibition” value was -5% and the Z score was 0.92.
For `O=C(Nc1ccc(F)c(F)c1)c1ccc(S(=O)(=O)c2ccc(Cl)cc2)s1`, the “% Inhibition” value was -21% and the Z score was 1.98.
`C[C@@H](C(=O)N(C)CC1(O)CCC1)n1cnc2c(N)ncnc21` was tested, and the “% Inhibition” value was -12% and the Z score was 1.57.
In the case of `Cc1ccc(-n2cc(NC(=O)N3CC[C@H](N)[C@@H]3C)cn2)c(C)c1`, the “% Inhibition” value was -9% and the Z score was 1.65.
`Cc1cc2c(cc1C(=O)NCc1nc(-c3cnccn3)n[nH]1)OCCO2` was tested, and the “% Inhibition” value was 12% and the Z score was -1.49.
In the case of `O=C(N[C@H]1CCc2nccn2C1)c1ccnc(C2CC2)n1`, the “% Inhibition” value was -8% and the Z score was 1.67.
In the case of `COc1ccc(CN2CCNC(=O)[C@@H]2CC(=O)N2CCOCC2)c(C)c1C`, the “% Inhibition” value was 4% and the Z score was -0.47.
In the case of `COc1ccc2c(c1)C(N1CCN(S(=O)(=O)c3ccccc3C)CC1)=Nc1ccc(C)cc1O2`, the “% Inhibition” value was 0% and the Z score was -0.07.
For `FC1(F)CC(Nc2ccnc(C3CC3)n2)C1`, the “% Inhibition” value was -7% and the Z score was 1.36.
`Cc1ccc2cc(CN(C(=O)C3CCCCC3)C(C)(C)C)c(O)nc2c1` was tested, and the “% Inhibition” value was -1% and the Z score was 0.07.
